Test results as given in the supplement of paper PMC10986608.
The other results are listed elsewhere or left out. Single values are uncertain, as repeats are few or missing.

system: Candida albicans DPL-15; assay: growth (OD600) after compound treatment (apparently relative to screen median) (relative growth (fraction; screen median 1.02)); DPL-15 is a caspofungin-resistant clinical isolate; higher = more fungal growth (less antifungal activity); settings: 25 µM; RPMI 1640; 48 h; 30 °C

Compound	growth
CC(C)CN1CCc2nc(-c3ccccc3)c(-c3ccccc3)cc2C1	0.733
CC(C)C1=NCCN(C)C2=C1C(c1cccc(C(F)(F)F)c1)N(c1ccccc1)C2=O (centres undefined)	0.964
COc1cc(F)ccc1C1c2c(CC(C)C)n[nH]c2C(=O)N1c1ccc(N(C)C)cc1 (centres undefined)	0.909
C=CCN1C(=O)C2=C(C(c3ccccc3)=NCCN2)C1c1ccc(Br)cc1 (centres undefined)	0.902
CC(=O)OC[C@H]1O[C@H](C#Cc2ccc(F)cc2)C=C[C@@H]1OC(C)=O	1.02
COCO[C@H]1CCC(=O)C(C(=O)OC)=C1Sc1ccc(Br)cc1	1.09
COc1cc(OC)c2c(=O)c3cccc(OCC=C(C)C)c3oc2c1	0.86
COC(=O)N[C@@H](c1cccc(F)c1)C(C(C)=O)C(=O)OC (some centres undefined)	0.982
CCOC(=O)C1C=CC(OC)=CC=C1C (centres undefined)	1.08
C=CCN1C(=O)C2=C(C(CC(C)C)=NCC(C)(C)N2)C1c1ccc(C)cc1 (centres undefined)	1.55
Cc1cc2c(c(=O)o1)[C@@]1(C(=O)N(C)c3ccccc31)C1=C(CC(C)(C)OC1=O)O2	0.961
C=CCN1C(=O)C2=C(C(CC(C)C)=NCC(C)(C)N2)C1c1ccc(Br)cc1 (centres undefined)	1.05
COc1ccc(N2C(=O)C3=C(C(c4ccccc4)=NCCN3C)C2c2ccccc2)cc1 (centres undefined)	1.01
c1ccc(CCCc2cccc(-c3ccccc3)n2)cc1	1.08
O=S(=O)(c1cccs1)N1CCCc2nc(-c3ccccc3)ccc21	0.903
CC(=O)NCC1CNC(=O)CC2(CCCCC2)CNC(=O)c2cccc(c2)-c2cc(n[nH]2)CO1 (centres undefined)	0.879
CCOC(=O)c1cc2nc(/N=C/N(C)C)nc(O)c2nc1C(=O)OCC	1.12
Cc1ccc(/C=C/C(=O)/C=C(O)/C=C/c2ccc(C)cc2)cc1	0.935
CC(=O)OC[C@H]1O[C@H](C#Cc2cccc(Cl)c2)C=C[C@H]1OC(C)=O	0.988
COC(=O)c1cc2c(c3c4ccccc4n(S(=O)(=O)c4cccc(C)c4)c13)C(=O)N(Cc1ccc(C)cc1)C2	0.865
CC(C)(NS(=O)(=O)OCC(F)(F)F)c1ccccn1	1.1
CCCc1cc2c(O)ccc(O)c2c(=O)o1	1.08
C[C@H]1C[C@H]2CC(=O)N[C@@H](Cc3ccccc3)C(=O)N2[C@H]1c1cccc(Br)c1	1.08
CC#CCN1C(=O)N(C)C(c2ccccc2)C(C(=O)OC)=C1C (centres undefined)	1.2
C=CCN1C(=O)C2=C(C(C)=NCCN2C)C1c1cccc(C(F)(F)F)c1 (centres undefined)	0.944
CCOC(=O)Cn1nnc(-c2ccc(C=O)cc2)n1	0.988
CC#C/C(O)=C(/C(=O)OC)c1cc(OC)cc(OC)c1	0.935

Compound	growth
Cc1ccc(Cl)cc1NS(=O)(=O)c1c(C(=O)N2CCCC2)c(C)n(C)c1C	0.905
CC(=O)C1=C(C)N(Cc2ccccc2)C(=S)NC1c1ccc(F)cc1 (centres undefined)	0.915
O=S(=O)(c1ccc(C(F)(F)F)cc1)N1CCCc2nc(-c3ccccc3)ccc21	0.935
COC(=O)c1cc2nc(/N=C(\C)N(C)C)nc(O)c2nc1C(=O)OC	1.22
O=C(/C=C/c1ccccc1)Nc1ccc2c(=O)c(Cc3cc4ccccc4s3)coc2c1	1.14
COc1ccc([C@@]23Oc4cc(OC)cc(OC)c4[C@]2(O)[C@H](O)[C@H](C(=O)c2ccccc2)[C@H]3c2ccccc2)cc1	1
COC(=O)[C@H]1[C@@H](O)[C@@]2(O)c3c(OC)cc(OC)cc3O[C@@]2(c2ccc(OC)cc2)[C@@H]1/C=C/c1ccccc1	0.987
COc1ccc([C@@]23Oc4cc(OC)cc(OC)c4[C@]2(O)[C@H](O)[C@H](C(=O)N(C)C)[C@H]3c2cccc(F)c2)cc1	1.44
Cc1ccc(C2NC(=O)c3nn(-c4ccc(F)cc4)c(-c4ccccc4)c32)cc1 (centres undefined)	0.945
COc1ccc(Cn2c(-c3ccc(OC)cc3)c(O)c(=O)c3ccccc32)cc1	0.99
COc1ccc(Cn2nc(C3CC3)cc2Nc2cc(O)cc(O)c2C(=O)N2Cc3cccnc3C2)cc1	1.04
CN1CCN=C(c2ccccc2)C2=C1C(=O)N(Cc1ccccc1)C2c1ccc2c(c1)OCO2 (centres undefined)	0.999
COc1ccc(N2C(=O)C3=C(C(C(C)C)=NCCN3)C2c2ccccc2)cc1 (centres undefined)	0.991
CC(C)CCc1cc(OCc2nn[nH]n2)cc2oc3ccccc3c(=O)c12	1.03
C#CCN1C(=O)N(C(C)=O)C(c2ccccc2)C(C(C)=O)=C1C (centres undefined)	0.987
COC(=O)c1nnc(C(=O)OC)c2c1[nH]c1ccc(OC)cc12	1.07
CC(C)(C)c1ccc(C#C[C@@H]2C=C[C@H](O)[C@@H](CO)O2)cc1	1.05
CC(=O)C1=C(C)NC(=O)N(C(C)=O)C1c1ccccc1 (centres undefined)	0.83
C=C(C)CC1=C(OS(=O)(=O)c2ccc(C)cc2)CCC1=O	1.11
COC(=O)[C@H]1[C@@H](O)[C@@]2(O)c3c(OC)cc(OC)cc3O[C@@]2(c2ccc(OC)cc2)[C@@H]1c1cccc(C#N)c1	1.02
Cc1cc(O)c2c(c1)OC1(C(=O)C=CC(O)=C1C(=O)O)C2=O (centres undefined)	1.11
COc1ccc(C(=O)COC(=O)c2c(N)cc(F)cc2F)cc1	1.02
CC(C)c1ccc2c(c1)C1(Cc3occc(=O)c3OS(C)(=O)=O)CCCCC1=N2 (centres undefined)	1.11
COc1ccc(N2C(=O)C3=C(C(C)=NCCN3)C2c2ccc(F)cc2)cc1 (centres undefined)	1.04
CN(Cc1ccccc1)C[C@@H]1CCCN(Cc2ccccc2)C1	1.09
C=CCC1CC2=C(OC1(C)C)C(C(=O)c1ccccc1)=C(O)C(CC=C)(CC=C)C2=O (centres undefined)	1.05
COc1ccc(N2C(=O)c3[nH]nc(CC(C)C)c3C2C2CCCCC2)cc1 (centres undefined)	1.02
